This is one part of the list. At the low end of the ranking the order means little. Measured with an extract: partners may take part in the binding.

For the experiment, the target named is T1, HNF4alpha8 (COS-7 nuclear extract) (UniProt P41235-5).
T1 sequence: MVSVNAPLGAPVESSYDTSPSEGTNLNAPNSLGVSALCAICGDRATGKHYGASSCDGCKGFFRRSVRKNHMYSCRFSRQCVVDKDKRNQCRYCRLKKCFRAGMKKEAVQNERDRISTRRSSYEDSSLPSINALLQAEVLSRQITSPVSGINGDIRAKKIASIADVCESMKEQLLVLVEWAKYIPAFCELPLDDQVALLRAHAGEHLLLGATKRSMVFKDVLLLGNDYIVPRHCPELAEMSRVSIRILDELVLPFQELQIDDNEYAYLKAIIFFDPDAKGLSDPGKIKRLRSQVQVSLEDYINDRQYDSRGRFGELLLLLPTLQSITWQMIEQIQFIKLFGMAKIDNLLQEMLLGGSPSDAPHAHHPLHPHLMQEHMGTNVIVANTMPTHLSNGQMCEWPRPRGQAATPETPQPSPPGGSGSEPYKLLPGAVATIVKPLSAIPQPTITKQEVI
In words: protein-binding microarray. The following applies: COS-7 nuclear extract on double-stranded Agilent 4x180k PBM; binding buffer, salt, pH and temperature not given; high values mean tight binding; double strand, one strand shown; sequences stand for … in …GCCTAGGGAGATTAGAGTATCGGTCGA
For the sequence AAAAAAAAAAAAAAAAAGAACACAGTGTAG, the binding signal (log2 normalized intensity) was -1.29. Next, GATCTTGAGGCCCACAAGGAATTTCCTTGT: -1.26; TCAAGCTAGGTAAGCACAGGTTTCTGTCCT: 0.42; CTCTGCAAACATTTATTTTGTGTGCTAGAT: 1.63. Next, GTATCTCTTCGCCTTGCTTATCTGGGAGGG: -0.342. Then AAACAAACTCCCAGTCTGTTATCAGAGCTG, with -1.29. For the sequence TATCATGAGGTATATTCAACCCCCACTTCC, the binding signal (log2 normalized intensity) came out at 4.31.

On to GAATTCAACCCTTGTCACTTTCCCTTTGTC, for which the binding signal (log2 normalized intensity) worked out at 1.83.

On to TTATCAGCAGGACACCAAACAGACCTCCCC, for which the binding signal (log2 normalized intensity) was 2.63. With TGGTTACAAAGGTCACACTCCTGTGCAAAC, the binding signal (log2 normalized intensity) came to 4.73. Then TACCACCAAAGAAAAAAGCCAATCTCTCAA, with -1.34. Next, CTAACAGCTGCAAGTGCCAACAAACTCAAT: -1.3; CAAACAGCTTCCAGAATAGCCTCTGCAACT: -1.39. With GAGTGAAGCCACAGAGATCAGAATCATAAA, the binding signal (log2 normalized intensity) was -0.979.

Consider CAGGCTCAGGGACCCAGCGGAATGCCAGCC, for which the binding signal (log2 normalized intensity) was -1.19. Then CCTCATGGGCGATCCCGAAAGCCGGTTCCC, with -1.29; and GTATGTGCCTGGAGAGCTAGTAAGGAGCTG, with -1.29; and CTGCGGCGGAAGGACACAGATTCAGAGTCA, with -1.14. Then TTGAGCTCTGCACAGCACAAGATAAGATAG, with -1.

For the sequence GTCCATGATTGCTGTCTACTCTGGGGGTCA, the binding signal (log2 normalized intensity) was 4.23. As to CTTATCTGGCCTGCTGGGAACTCAGGATCA, the binding signal (log2 normalized intensity) was -0.272.

For the sequence GGGTAACTGACCTTGTTGCCCACCCCCCAA, the binding signal (log2 normalized intensity) came to 5.8. GCTTTGTTCTGTTCCAGTTATGTTCTCTGT: the binding signal (log2 normalized intensity) came out at 2.24. Next, TGGTATCCACAGAGTTCATAATTTTGGACT: 3.73; GAGTTCCTTCAGACCCAATAAACTTGTTTG: 0.593.

For GCCAAGGAAGAGAAGACCAAACAACCAGGG, the binding signal (log2 normalized intensity) is -1.18.

Regarding CTGTCGTCCCAGGGCAAAGGTCACCAGCTA, the binding signal (log2 normalized intensity) turned out to be 7.57.

For the sequence CATCCAAAGTTTCCTCTCCTGCCCTACTCC, the binding signal (log2 normalized intensity) amounted to 2.47. Then TGCTGAGTATGCAGCGGGCAGCCCGTGTGG, with -1.02; and AAGCCTCAGGAGTTGGAGGAACAGGTGGGG, with -1.23.

Take ACCAGTCCCATCTGTGCTCATTATTATCAG: the binding signal (log2 normalized intensity) amounted to 0.364. Next, CGGGTGGACGTCCCCGGGCGGGATGGGGTC: 2.74.

With TAGGCCGGTCAAGTCAGAGGCCCAGCAAGG, the binding signal (log2 normalized intensity) is -1.37. Next, CAGGCCAGTAGGTCAGTGTCCCTCTTATAC: 1.01.

TCCCCTGAGCTTGAGTCCATCCCATCTTCC: the binding signal (log2 normalized intensity) was determined as 1.98. Next, GAGACAATCACTTGTATCGCCTGAATGACC: 2.3; TAATGCTGGTAAAGCACTTTGCCCCCAAGA: 6.08; CTCTAAATTCCAGGGCTGGGTCCAGGAATG: 1.04. In the case of TTACAACTGTAAACATCTAATGAACTGATT, the binding signal (log2 normalized intensity) was found to be 0.181. Turning to GCAACTATTTATGAGTCTTGGGAATGAATC, the binding signal (log2 normalized intensity) was determined as 0.816. Consider AGATTACTTCAAGGCTGGAGTTCACTCCCA, for which the binding signal (log2 normalized intensity) turned out to be 1.03. Then AGGCTGTCAGAGTGCTGCATGCAAAAAGGC, with -1.03; and CAGAGCTTGCTGCATTCCCCCACCTACTGT, with 3.72; and GCCTCTCAGCTCATTCAAAGTCCAAAAAGA, with 3.55. Then TGCCAAAGGTTAAAATTCCCTGTGGAATTT, with 2.15; and TTCTGCTGGATGCCCAGGGATTCCTGAAGA, with -0.933. Then TTGGAATGTGACGGCAGGTCCATGGTCAGC, with 0.882; and GGTATGCCTTTGAAGAGTACAGCCTTGCGT, with -0.674; and GATTTTGTCCTGAGTTATTGGAAGAATGGA, with 1.31.

Take GCCTCCCAGAACGTGGCCTTTAATCAACTG: the binding signal (log2 normalized intensity) is -0.0579.

GGCTGAATGGGCAAAGGTCACAAGAGGTGC: the binding signal (log2 normalized intensity) is 5.48. Then ACTTGGGATGCTGAGGTGGGAGGATCGCTT, with -1.26.

For TGGACTGTAATACACAAGCAATAGGGTTCG, the binding signal (log2 normalized intensity) stood at 0.543. As for GCAAGGAACGGAATGTGTGATAAGGAACTG, the binding signal (log2 normalized intensity) was -1.25. Next, AGAGTGCTTAATCTCTGCTCATAATGCCAG: -1.36; AAGAAAAGTTATGTTGGGCAACTACCTCAA: -1.29; CCACACATTGCCACACTATTTACACAGCTG: -1.31. Then CCAACCGGTTCCACAGTATCCCTTGCTCAA, with -1.33; and AAATGCATTATTGCACTGTGCTTTGTTTAC, with 1.03. Then TACAAGGAGCAGCCTAGTAAAAGGTAGATA, with -1.27. GACATCTATCAACATATCTTATCCTCACAC: the binding signal (log2 normalized intensity) worked out at 0.186. Next, CTGAGATAGTCATTCTTCTACAGTGTTTAC: 0.606; AAGGATCAAAGTCACTCAGCCCGAGAAACG: -1.24; CCACATGGATGGATTCAGATCCAGTGGACT: 2.67.

In the case of CCTCGAGGCAACCTTTGACCTGGTACTATG, the binding signal (log2 normalized intensity) came to 6.8. Regarding TACCAGATAGATGCTGCTCTCCCACTCCCC, the binding signal (log2 normalized intensity) stood at 2.4.

As to AGAATGACCAGGAGTTTGGGATCAGACACG, the binding signal (log2 normalized intensity) was 0.332. Then CCACACCTGTGAAGATCAGCTATCAGTTTA, with -0.577. Next, AAAGGGCAAAGGTCAGCTCATTCCCTAGGG: 6.71. Next, AGGTCAAAAATGATGCCTGACTCAAGAAAG: -1.48; CAAAGTCCAGTAAGGACAGTTCCAGGAATG: 2.11. With GGGCAAAGTCCCCTTTCCTCATATTTTGCA, the binding signal (log2 normalized intensity) is 2.82.
